The results in this text go back to a collection of fitness landscapes (doi:10.1126/science.1257360).

The labels stand for the following.
B1: PhoQ; a variant is named by its letters at X, in order, P23837 (parent)
chain: MKKLLRLFFPLSLRVRFLLATAAVVLVLSLAYGMVALIGYSVSFDKTTFRLLRGESNLFYTLAKWENNKLHVELPENIDKQSPTMTLIYDENGQLLWAQRDVPWLMKMIQPDWLKSNGFHEIEADVNDTSLLLSGDHSIQQQLQEVREDDDDAEMTHSVAVNVYPATSRMPKLTIVVVDTIPVELKSSYMVWSWFIYVLSANLLLVIPLLWVAAWWSLRPIEALAKEVRELEEHNRELLNPATTRELTSLVRNLNRLLKSERERYDKYRTTLTDLTHSLKTPLXXLQXXLRSLRSEKMSVSDAEPVMLEQISRISQQIGYYLHRASMRGGTLLSRELHPVAPLLDNLTSALNKVYQRKGVNISLDISPEISFVGEQNDFVEVMGNVLDNACKYCLEFVEISARQTDEHLYIVVEDDGPGIPLSKREVIFDRGQRVDTLRPGQGVGLAVAREITEQYEGKIVAGESMLGGARMEVIFGRQHSAPKDE

The other results are listed elsewhere or left out.

This assay covers variants of B1. Description: enrichment ratio after two sorts for PhoP signalling (ratio (wild type AVST 3.29)); higher = more functional. The conditions noted are these: with PhoP (E. coli).
For the variant AKIE, the enrichment ratio was at most 0.25.
In the case of RQFI, the enrichment ratio was at most 0.25.
In the case of HVRV it was at most 0.25.
Turning to GDAY, the enrichment ratio is at most 0.25.
For STQS, the enrichment ratio was at most 0.25.
As to YKLE, the enrichment ratio was determined as 3.65.
The same measure for NKQQ: at most 0.25; for MSHI: 2.06; for IYRC: at most 0.25.
For the variant IGQC, the enrichment ratio is at most 0.25.
Regarding EREL, the enrichment ratio was at most 0.25.
Turning to QQSQ, the enrichment ratio was at most 0.25.
The same measure for IDSQ: at most 0.25; for PQAP: at most 0.25; for GHCK: at most 0.25.
In the case of YPYF it was at most 0.25; in that of HKKR, at most 0.25; in that of LQEN, at most 0.25.
Turning to YENG, the enrichment ratio is at most 0.25.
In the case of FDKN it was at most 0.25; in that of AEVA, at most 0.25; in that of PWFT, at most 0.25.
For the variant VKGK, the enrichment ratio is at most 0.25.
On to VASD, for which the enrichment ratio is at most 0.25.
In the case of SKQP it was at most 0.25; in that of ERYH, at most 0.25; in that of FIFV, at most 0.25.
In the case of HSLW it was at most 0.25; in that of WSNQ, at most 0.25.
On to RSTS, for which the enrichment ratio is at most 0.25.
For GGLW, the enrichment ratio was at most 0.25.
The same measure for ESLH: at most 0.25.
The same measure for ECWL: at most 0.25.
For the variant EHLF, the enrichment ratio is at most 0.25.
For MLGM, the enrichment ratio was determined as 3.59.
The same measure for SGIS: 6.52; for KFPT: at most 0.25; for GPHI: at most 0.25.
For the variant SKDI, the enrichment ratio was at most 0.25.
In the case of RQIK it was at most 0.25; in that of KNHP, at most 0.25.
The same measure for LERW: at most 0.25; for QEQG: at most 0.25; for MNQC: at most 0.25.
SKNP: the enrichment ratio is at most 0.25.
Take LDLI: the enrichment ratio was at most 0.25.
The same measure for LEKI: at most 0.25; for EKRG: at most 0.25; for DNHE: at most 0.25.
The same measure for RPGK: at most 0.25.
KYDH: the enrichment ratio stood at 1.19.
Regarding NHNP, the enrichment ratio was at most 0.25.
STMN: the enrichment ratio was found to be 2.85.
ASWM: the enrichment ratio was at most 0.25.
As to YPLG, the enrichment ratio was at most 0.25.
In the case of YKWY, the enrichment ratio is at most 0.25.
The same measure for WDGN: at most 0.25.
In the case of NHWH it was at most 0.25; in that of WMSN, at most 0.25; in that of VSFR, at most 0.25.
The same measure for GCLT: 6.49; for FLSR: at most 0.25; for HCMH: at most 0.25.
Consider IKCE, for which the enrichment ratio is at most 0.25.
On to FEMP, for which the enrichment ratio was at most 0.25.
In the case of MGLS, the enrichment ratio is 5.14.
The same measure for MNYN: at most 0.25.
The same measure for IRGL: at most 0.25.
In the case of SPSW it was at most 0.25.
Take MGIM: the enrichment ratio amounted to 10.8.
With FYDK, the enrichment ratio was at most 0.25.
In the case of QYMC it was at most 0.25; in that of ENVA, at most 0.25; in that of DCCH, at most 0.25.
The same measure for MFKR: at most 0.25.
Turning to YFLS, the enrichment ratio is at most 0.25.
On to IHCP, for which the enrichment ratio was at most 0.25.
The same measure for LYWD: at most 0.25; for TRRH: at most 0.25; for RYQN: at most 0.25.
In the case of DDQN it was at most 0.25; in that of EIKT, at most 0.25; in that of VQTH, at most 0.25.
The same measure for WMDL: at most 0.25.
